Assay results taken from the RNAGym collection of RNA variant scans (doi:10.7554/elife.90254).
The source gives no read counts; variants with many changes may rest on few reads.

B1: LINE1-full (parent)
chain: UACGUAGGUGGUUUUCCCCUGAUAGUGCUAAGGGGGCCUGGAAGUUUGGACUGGGCAGAGCUCAACACAGCGUGGCAAAGUGGCUGUGGCUAGACUGCCUCUCUGGAUUCCUCGUCACUCAGCAGGGCAUCUCUGAGAGAAAUGCC

Variants of: B1
Test: self-cleavage, relative activity (ratio to wild type); higher = more cleavage; in vitro, sequencing; the parent is a self-cleaving ribozyme

Row | Variant | self-cleavage
1 | U13C G53U U108C A129G A138G | 1.19
2 | U81C U85C A142G | 0.77
3 | G49A A59U A141U | 0.53
4 | U1C G75A A79G U115A U119C U132C | 1.15
5 | U9A A65U A142G | 0.14
6 | G58U U73A A78G U134A A142G | 0.03
7 | U15C A78G U102C | 1.56
8 | U73A U112A U134C | 2.43
9 | G32A U91C A138G | 0.99
10 | A6G U73A A79G G83A A107G | 0.99
11 | C111A A136G G144A | 1.63
12 | A22G U62C C68U | 0.04
13 | C38A G41U A77U A121U | 1.28
14 | G53C C110A U132C | 1
15 | G4A G32A G58A | 0.06
16 | G35A A94G U112C | 0.18
17 | U23C U52A A67C | 0.08
18 | U15C U47A C98U | 0.4
19 | U20C U109C A140G | 0.52
20 | U20C G80A A107G | 0.71
21 | U9C A69U U134G | 0.2
22 | A6U U26A A64U A140G | 0.1
23 | U15A G49A U132C | 1.13
24 | U20A C37G G72U A78G U87A U91A | 0.06

Row | Variant | self-cleavage
25 | G48A G72A U81C U104A U108C | 1.67
26 | A43G G53A A140U | 0.82
27 | G36C A64U A124G | 0.12
28 | U14A A43G U108C U143A | 1.21
29 | U20C U45A U109A | 1.17
30 | U9G C118A A124U | 0.57
31 | C16A A64G U130G | 0.51
32 | C3U A79G C113U U134G | 0.55
33 | U13A A43U U62A A78G A79U | 0
34 | A42G A64G U102C | 0.77
35 | U13C A24G A142G | 0.56
36 | A42G G49A A69U | 0.05
37 | U26A C51A A117U A124C | 1.51
38 | A43U A69G U96A A107U G137U | 0.04
39 | U26G G44U G93U U115C U119C | 0.08
40 | U12G C19A G60U C113A | 0.13
41 | U13C A43G U96C | 0
42 | A6U U45C C61U A67U U81C A136G C145U | 0.09
43 | U20A U119C C123U | 1.12
44 | U13C U26C G35A U73A | 0.86
45 | U39A A43G U73C | 1.11
46 | U23C U46C U130C | 1.02
47 | A50G A69G C120U A124C A136U | 1.84
48 | U52A A67G G72U | 0.3

Row | Variant | self-cleavage
49 | U13C U108A G139A A142G | 0.35
50 | A50G U91C A121U | 1.03
51 | C16U U115C U134C | 1.36
52 | U15C A43G U108C A121U | 1.34
53 | U20A A43G A138U | 1.42
54 | U20A U52A U108C U109C A129G | 0
55 | U47C C123A U132C | 1.04
56 | U39C G88A A117C | 0.07
57 | U62C A140G A141G | 0.01
58 | U20A G41U U52C A64U | 0.3
59 | A30G U52C U108A | 1.41
60 | U15A U29A U46C U134G | 0.71
61 | U20C G54A G125U | 0.39
62 | U45C G60A U143C | 0.05
63 | U46A A67G A94G | 0.25
64 | U39A A67G A117G A138G | 0.66
65 | U15A G33U A79U U102C U132C A141G | 1.39
66 | U46A U81A C98U | 0.34
67 | A22G U26A U134C | 1.64
68 | U9A U14C U100A U108C | 0.95
69 | A2U A43U U45C | 0.35
70 | U45C U96C A107G | 0.21
71 | U14C A42G U45C A94C U112C | 0
72 | U14C G75A A141G | 0.86

Row | Variant | self-cleavage
73 | U14C A50U U134A | 0.66
74 | U26A A77G U87C | 0.16
75 | U26A G70A U134G | 0.09
76 | U73C C103A A129G | 0.57
77 | U12C A57U A59G U85A U100C G127C | 0.07
78 | U1A U14A U45C | 0.88
79 | U46C A77U U109C U134A | 0
80 | U5A G34A U130C A138U | 0.81
81 | U45A A121G A142C | 0.9
82 | G40U A121C A142G | 1.56
83 | U46A U62C A136G | 0.03
84 | U81C U96C U109A | 0
85 | U39C U62C A136G | 0.04
86 | U1G U23A U62C A117U A138G | 0
87 | U46G C56U A94G U96C | 0
88 | U20C A22G A79G A92U A136G | 1.02
89 | U20C U39G U62A U85C A136G | 0.22
90 | U9C U73C U87A A142G | 0.22
91 | A57U G58A U85C A136G | 0.04
92 | U13C C18U U20A U45A A141G | 0.47
93 | U62C U102A U115C | 0.23
94 | U9A U13C A107G | 0.5
95 | U20A U26A U104A | 1.33
96 | U12C U47A U134G | 1.29

Row | Variant | self-cleavage
97 | U14C G60A A79G U85C U119C A136G | 0.09
98 | U45A U108A U115A | 0.14
99 | U5A U46A U119C | 1.11
100 | U9A A42G C66U A107G U130C | 0
101 | U9C U12G U14C U96C C99U U134C | 0.21
102 | A65G A117U G126U | 0.07
103 | A43G A69C U91A U130C | 0
104 | C3U C98U U132C | 0.36
105 | U29C G83A C103A U134G A142G | 1.33
106 | A79G U119C U130C | 1.34
107 | G10A U20A A94U U115C | 0.12
108 | A30C A42U U130A A138G | 1.39
109 | A42G A69U A140G A142G | 0.03
110 | U14A A42G U119C G125U | 2.04
111 | A69U C71U U81C A107G U134C | 0
112 | A69U U81A U96C G126U | 0.03
113 | U39A U47A U62C U112A A121G | 0.14
114 | U20A A77G U102C G125C A136U A142G | 1.36
115 | U15C U23C A50G A65U G82A U132A | 0.28
116 | U20A U39A U45G A59G | 0
117 | U62C C99U A117C | 0.05
118 | A24G A43G A65G G88A U143C | 0.23
119 | U12C U14C A57G U62C U85A | 0.74
120 | C3A G72A U73A A78U U112G | 1.75

Row | Variant | self-cleavage
121 | A22G C61U A94G C145U | 0
122 | A64U U109A A121U | 0.37
123 | U39C U115C A124U A141G | 2.78
124 | A22G A67G G97A | 0.04
125 | U39A U73A U119C G127A | 1.26
126 | U47A C84U A141G | 0.07
127 | U20A U39A U104C | 1.29
128 | G8A U9C A22G U102C A140G | 0.39
129 | U14C U115C A136G | 2.63
130 | U47C U87A A94U | 0.14
131 | U20A U39A A43G G88A A107G U115C | 0.11
132 | U23C G41U A65G A92G | 0.06
133 | U45A U81A A121G A140G | 2.07
134 | U62C A65U U96A A129G | 0.08
135 | U45A U87A U119C U134C | 0.08
136 | U47C A64U A78U A136G | 0.62
137 | U15G A69G C103A U130C U143A | 0.27
138 | G48A G58A A77G | 0.05
139 | U5C A69U U119C A124G | 0
140 | U47A U62C A67U U102A | 0.03
141 | A22G C63A U102C A129G U134A | 0.15
142 | A65G A117U A136U | 0.03
143 | U46G U91A A140U U143C | 0.92
144 | A42G A69U C95G C116U U143A | 0.03

Row | Variant | self-cleavage
145 | U15C G32U U102A U119C A141G | 1.66
146 | U45C U62C C146U | 0.09
147 | A92G G97A A121G | 0.08
148 | C3U U13A U46C U62C A64C G127C | 0.35
149 | A22U U134C A138G | 1.03
150 | G60A A67G C71A | 0.02
151 | A6G U13C U109C | 0.97
152 | A92G G106U U132A | 0.04
153 | A22G A59G A141G | 0.12
154 | U45C U62C A77U U132C | 0.12
155 | A50G U73A C95A | 0.02
156 | C18U U52A A59G G80A | 0.06
157 | U45C A129G U132C | 1.39
158 | U1C G49A A121G | 0.52
159 | C66U A117G C123U | 0.03
160 | U9A U62C C76U | 0.03
161 | G54A A64U A117G A140G | 0.29
162 | U5C U13C U102C A136G | 0
163 | U23C C56U C90G | 0.03
164 | G60A U73C U112C | 0.02
165 | A2G U73C A140G | 0
166 | A77U A79G U104A | 1.43
167 | U62C A77G A124G | 0
